In the RNAGym collection of RNA variant scans (doi:10.1073/pnas.2313332121):
This sample is rich in variants without activity.

B1: TPR 5TU (parent)
chain: GGAUCUUCUCGAUCUAACAAAAAAGACAAAUCUGCCACAAAGCUUGAGAGCAUCUUCGGAUGCAGAGGCGGCAGCCUUCGGUGGCGCGAUAGCGCCAACGUUCUCAACUAUGACACGCAAAACGCGUGCUCCGUUGAAUGGAGUUUAUCAUG

Variants of: B1
Experiment: polymerase ribozyme fitness, log enrichment relative to wild type (log ratio); higher = more active; in vitro selection for triplet polymerase activity
Outline: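 Fitness measures genotype enrichment against wild-type enrichment on a logarithmic scale, with inverse-variance-weighted averaging of replicates. The logarithm is base 2, and genotypes were kept only with ≥10 input reads and ≥1 read per output in Illumina sequencing. The sequenced libraries came from one triplicate in vitro selection round, including frozen incubation at −7 °C, of PCR-built, transcribed mutant libraries of each subunit of a heterodimeric triplet polymerase ribozyme.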

A52U C75G C85U G133A and A52U C75U U78A C95U A142U cannot be ordered by “polymerase ribozyme fitness (log ratio)” value: no more than -4.2 for the first, no more than -4.2 for the second.

A52U C76G A119U C125G G140A and A52U C76G C108U C125A cannot be ordered by “polymerase ribozyme fitness (log ratio)” value: no more than -4.2 for the first, no more than -4.2 for the second.

A52U C76U G86C G126C G152U and A52U C79A A110U C116U A120U C131G cannot be ordered by “polymerase ribozyme fitness (log ratio)” value: no more than -4.2 for the first, no more than -4.2 for the second.

A52U C85G C99G C118A U144C and A52U C85G G92A C118A A120U cannot be ordered by “polymerase ribozyme fitness (log ratio)” value: no more than -4.2 for the first, no more than -4.2 for the second.

A52U C87A C103A G141U and A52U C87G C99U cannot be ordered by “polymerase ribozyme fitness (log ratio)” value: no more than -4.2 for the first, no more than -4.2 for the second.

A52U C93U C114U U127A and A52U C95G C96G C103U C114G C118A A142C cannot be ordered by “polymerase ribozyme fitness (log ratio)” value: no more than -4.2 for the first, no more than -4.2 for the second.

A52U C96G A97G C108G and A52U G59A G80C U109A cannot be ordered by “polymerase ribozyme fitness (log ratio)” value: no more than -4.2 for the first, no more than -4.2 for the second.

A52U G67A C75U G94C G112A and A52U G67C G94A C95U G117U G126U U130A cannot be ordered by “polymerase ribozyme fitness (log ratio)” value: no more than -4.2 for the first, no more than -4.2 for the second.

A52U G68A U82G G133U A137C A142C and A52U G68C G84U U101C C132U A150G cannot be ordered by “polymerase ribozyme fitness (log ratio)” value: no more than -4.2 for the first, no more than -4.2 for the second.

A52U G71A C76A C95U and A52U G71A C125A U148A cannot be ordered by “polymerase ribozyme fitness (log ratio)” value: no more than -4.2 for the first, no more than -4.2 for the second.

A52U G74A G80C C95U A147C and A52U G74C U130A U139C cannot be ordered by “polymerase ribozyme fitness (log ratio)” value: no more than -4.2 for the first, no more than -4.2 for the second.

A52U G81A U104A G124U U134A and A52U G81U A98G C99A U102C C103A U148G cannot be ordered by “polymerase ribozyme fitness (log ratio)” value: no more than -4.2 for the first, no more than -4.2 for the second.

A52U G88A and A52U U53A A60U U61G C93G C96G C132G G133C C149U cannot be ordered by “polymerase ribozyme fitness (log ratio)” value: no more than -4.2 for the first, no more than -4.2 for the second.

A52U U55A A60C C96A A122G A147C and A52U U55A A115U C118A G126U A150U cannot be ordered by “polymerase ribozyme fitness (log ratio)” value: no more than -4.2 for the first, no more than -4.2 for the second.

A52U U55A G65U C93G and A52U U55A G68U cannot be ordered by “polymerase ribozyme fitness (log ratio)” value: no more than -4.2 for the first, no more than -4.2 for the second.

A52U U56A G71U U77A C87A C93G C95U A97U C108G and A52U U56G G67C C103G U139C cannot be ordered by “polymerase ribozyme fitness (log ratio)” value: no more than -4.2 for the first, no more than -4.2 for the second.

A52U U56G U61A A107G G124A G133C and A52U U61G G80C C87G G94U A121U cannot be ordered by “polymerase ribozyme fitness (log ratio)” value: no more than -4.2 for the first, no more than -4.2 for the second.

A52U U77G G80C G81A C85U and A52U U77G G84C G128A G143A cannot be ordered by “polymerase ribozyme fitness (log ratio)” value: no more than -4.2 for the first, no more than -4.2 for the second.

A52U U78G G92U C95A A138C and A52U U82C G83U C99A U144G U148C cannot be ordered by “polymerase ribozyme fitness (log ratio)” value: no more than -4.2 for the first, no more than -4.2 for the second.

Going from U53A A64G to U53A A64U C85A G124A, the “polymerase ribozyme fitness (log ratio)” value falls from -3.41 to no more than -4.2.

U53A A66C C132A and U53A A66G A91C A121G C123A cannot be ordered by “polymerase ribozyme fitness (log ratio)” value: no more than -4.2 for the first, no more than -4.2 for the second.

Going from U53A A66G U146A A147U to U53A C54A U82A G141C, the “polymerase ribozyme fitness (log ratio)” value rises from no more than -4.2 to -2.84.

U53A C54G C93U U101C G126A A150C and U53A C54U C87G A89U G94U A97G A115G cannot be ordered by “polymerase ribozyme fitness (log ratio)” value: no more than -4.2 for the first, no more than -4.2 for the second.

U53A C57A A73U C76A C103G U148C and U53A C57G G74C C87A C93A cannot be ordered by “polymerase ribozyme fitness (log ratio)” value: no more than -4.2 for the first, no more than -4.2 for the second.

U53A C57G U102G G112U A137G G143C and U53A C57U A91C C125A cannot be ordered by “polymerase ribozyme fitness (log ratio)” value: no more than -4.2 for the first, no more than -4.2 for the second.

U53A C63G A120G G143C and U53A C69U C79G C93U C123G A137C cannot be ordered by “polymerase ribozyme fitness (log ratio)” value: no more than -4.2 for the first, no more than -4.2 for the second.

U53A C72G U82G C149U and U53A C75U G81U C95U A98U C105G A106U cannot be ordered by “polymerase ribozyme fitness (log ratio)” value: no more than -4.2 for the first, no more than -4.2 for the second.

U53A C76A G84C A122U and U53A C76G C85G cannot be ordered by “polymerase ribozyme fitness (log ratio)” value: no more than -4.2 for the first, no more than -4.2 for the second.

U53A C76G G92A A107C G124U C149A and U53A C79U G136A cannot be ordered by “polymerase ribozyme fitness (log ratio)” value: no more than -4.2 for the first, no more than -4.2 for the second.

U53A C85A C93U G141C U151A and U53A C85A U101G A119G U127A U151A cannot be ordered by “polymerase ribozyme fitness (log ratio)” value: no more than -4.2 for the first, no more than -4.2 for the second.

U53A C85G G133A G143A and U53A C85U G94A U109C U146A cannot be ordered by “polymerase ribozyme fitness (log ratio)” value: no more than -4.2 for the first, no more than -4.2 for the second.

U53A C87G and U53A C87U A137U A138U cannot be ordered by “polymerase ribozyme fitness (log ratio)” value: no more than -4.2 for the first, no more than -4.2 for the second.

U53A C93A A106C U130A and U53A C93G cannot be ordered by “polymerase ribozyme fitness (log ratio)” value: no more than -4.2 for the first, no more than -4.2 for the second.

U53A C93G A98G and U53A C93U G133A A138G A142G cannot be ordered by “polymerase ribozyme fitness (log ratio)” value: no more than -4.2 for the first, no more than -4.2 for the second.

U53A C93U U109G and U53A C95U C96A C129G U139A U148G cannot be ordered by “polymerase ribozyme fitness (log ratio)” value: no more than -4.2 for the first, no more than -4.2 for the second.

U53A C95U C96G A142C U148C and U53A C95U C96U A119U G152U cannot be ordered by “polymerase ribozyme fitness (log ratio)” value: no more than -4.2 for the first, no more than -4.2 for the second.

U53A C96A U102A U139G G141A and U53A C96U G117U G152U cannot be ordered by “polymerase ribozyme fitness (log ratio)” value: no more than -4.2 for the first, no more than -4.2 for the second.

Compared with U53A C96U G126A A147G, U53A C99U U134A is higher in “polymerase ribozyme fitness (log ratio)” value: no more than -4.2 for the first, -3.7 for the second.

U53A C99U U148A C149A and U53A C103A A120C G124A U134A cannot be ordered by “polymerase ribozyme fitness (log ratio)” value: no more than -4.2 for the first, no more than -4.2 for the second.

Going from U53A C118U U134C G141A U146C to U53A C132U, the “polymerase ribozyme fitness (log ratio)” value falls from -0.702 to -1.73.

U53A G58A C69G G83A C123A U134G and U53A G58C A66C G84A A91G U102G A119U C132A cannot be ordered by “polymerase ribozyme fitness (log ratio)” value: no more than -4.2 for the first, no more than -4.2 for the second.

U53A G58C C69G C87G and U53A G58U C85G G92A C96G cannot be ordered by “polymerase ribozyme fitness (log ratio)” value: no more than -4.2 for the first, no more than -4.2 for the second.
